Results reported in PubChem BioAssay AID1347073 (National Center for Advancing Translational Sciences (NCATS), 2019).
The campaign covered roughly 45,000 compounds. About 200 (0.44%) were called active. About 7% were inconclusive and are not listed. The call rests on the fitted dose curve; in most records, active means well fitted activation curve with a large enough effect; inconclusive means small, poorly fitted or top-dose-only effect; inactive means no such curve, though single readings can be large or run the other way. Some of the results follow.

Experiment: qHTS of TDP-43 Inhibitors: NCGC Sytravon Library Screen; further: nearly all actives have a fitted effect of over 55% in size; on growth rescue (activation): 0% is about no effect
Settings: yeast TDP-43 toxicity rescue, BacTiter-Glo growth, 24 h; series mostly up to 46.1 µM; growth rescue (activation): at the top concentration
Summary of the method: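 TDP-43-expressing yeast, pregrown in raffinose, seeded at OD600 0.02 in galactose medium with compound for 24 hr at 30 deg C. Growth read by BacTiter-Glo luminescence, so rescue of toxicity appears as activation.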
Potency means the concentration at half of the fitted maximal effect.

| Compound | growth rescue (activation) | Potency |
| --- | --- | --- |
| CCC(CC)c1nnc(NC(=O)CS(=O)(=O)c2ccccc2)s1 | inactive: -3.88% |  |
| O=C(Nc1cccc(C(F)(F)F)c1)Nc1ccc2[nH]c(=O)[nH]c2c1 | inactive: 7.42% |  |
| O=C(O)CS(=O)CC(=O)Nc1cccc(C(F)(F)F)c1 (stereo unspecified) | inactive: -9.45% |  |
| CCOc1ccc(OCC)c(NC(=O)c2ccc(CNc3c(N4CCCC4)c(=O)c3=O)cc2)c1 | inactive: -6.61% |  |
| Cc1ccccc1-c1cc2nc(NCc3ccc4occc4c3)n(C)c(=O)c2s1 | inactive: 25.9% |  |
| CCOC(=O)N1CCN(C(=O)COC(=O)c2cc(C)ccc2C)CC1 | inactive: 12.9% |  |
| Cc1ccc(NC(=O)COc2ccc(-c3nnco3)cc2)cc1S(=O)(=O)N1CCOCC1 | inactive: 16.5% |  |
| Cc1ccc(CN2CCN(C(=O)c3cccc4ccccc34)CC2)cc1 | inactive: -4.12% |  |
| Cc1cc(OCC(=O)NC(C)(C)C)ccc1Cl | inactive: 35.6% |  |
| COc1cc([C@@H]2[C@H]3CN(C)CC=C3C(C#N)=C(N)C2(C#N)C#N)cc2c1OCO2 | inactive: -24.1% |  |
| O=C(NCc1ccccc1)c1cc(C2CCCN(S(=O)(=O)c3cccs3)C2)on1 (stereo unspecified) | inactive: 4.34% |  |
| CCN1CCN(Cc2cc(=O)oc3ccc(C)cc23)CC1 | inactive: -7.21% |  |
| CCC(c1nnc(SCC(=O)NC23CC4CC(CC(C4)C2)C3)o1)N(C)C (stereo unspecified) | inactive: 1.78% |  |
| COc1ccc(C2CC(c3ccccc3)=NN2C(=O)CSc2nnnn2-c2cccc(C)c2)cc1 (stereo unspecified) | inactive: 6.16% |  |
| Cc1c(N2C(=O)CSC2c2ccc([N+](=O)[O-])cc2)c(=O)n(-c2ccccc2)n1C (stereo unspecified) | inactive: -3.83% |  |
| Cc1nn(CC(=O)NC2CCS(=O)(=O)C2)c(C)c1[N+](=O)[O-] (stereo unspecified) | inactive: -3.03% |  |
| Cc1cc(N2C(=O)CC(N3CCN(C(c4ccccc4)c4ccccc4)CC3)C2=O)no1 (stereo unspecified) | inactive: 17.9% |  |
| COC(=O)C(=Nc1ccccc1)/C(C(=O)C(=O)N(C)c1ccccc1)=C(\O)c1ccccc1 | inactive: -2.23% |  |
| O=C(NCc1ccccc1Cl)[C@@H]1CCCN1S(=O)(=O)c1ccc(Cl)cc1 | inactive: 21.5% |  |
| O=C(COC(=O)c1ccc2c(c1)OCO2)Nc1nc(-c2ccccc2)cs1 | inactive: -9.12% |  |
| CCOC(=O)N1CCN(CC(O)c2c[nH]c3ccc(OC)cc23)CC1 (stereo unspecified) | inactive: -3.53% |  |
| Cc1ccc(OCC(O)CNCc2ccc(F)cc2)cc1 (stereo unspecified) | inactive: 4.32% |  |

| Compound | growth rescue (activation) | Potency |
| --- | --- | --- |
| CN1CCN(S(=O)(=O)c2ccc(N3CCN(C(=O)c4ccccc4)CC3)nc2)CC1 | inactive: 17.9% |  |
| Cc1cccc(NC(=O)CSc2nnnn2C2CCCC2)c1 | inactive: 1.12% |  |
| O=C(COC(=O)C1CC1)NCCc1ccccc1 | inactive: 18.7% |  |
| CN(C)c1ccc(P(=O)(Nc2ccc([N+](=O)[O-])cc2)N2CCOCC2)c(NC(=O)c2cccs2)c1 (stereo unspecified) | inactive: 5.3% |  |
| COc1ccccc1NC(=O)c1ccc2nsnc2c1 | inactive: 30.7% |  |
| C=CCN(Cc1nc(-c2ccccc2)no1)C(=O)c1ccc2c(c1)OCO2 | inactive: 34.7% |  |
| O=C(Cc1ccccc1)NCC(=O)N1CCc2ccccc2C1 | inactive: 1.24% |  |
| S=c1[nH]nc(-c2ccc3ccccc3n2)n1-c1ccccc1Cl | inactive: 5.24% |  |
| COc1cc(/C=C2/SC(=S)N(c3c(C)n(C)n(-c4ccccc4)c3=O)C2=O)ccc1O | inactive: -10.2% |  |
| Cc1cc(NC(=O)CN2C(=O)NC3(CCCCC3)C2=O)no1 | inactive: 6.36% |  |
| C/C(=N/NC(=O)c1cccs1)c1ccco1 | inactive: 6% |  |
| COC(=O)c1ccccc1OS(=O)(=O)N(C)C | inactive: 1.57% |  |
| COc1ccccc1NC(=O)N(CCN(C)C)Cc1cc2cc(C)ccc2[nH]c1=O | inactive: 13.7% |  |
| CN(C)S(=O)(=O)N(CC(=O)N1CCC(Cc2ccccc2)CC1)c1ccccc1 | inactive: 16.1% |  |
| COc1cc(CCC(=O)OCC(=O)Nc2ccc(C)cc2Br)cc(OC)c1OC | inactive: 7% |  |
| Cc1nnc(SCC(=O)c2c(N)n(C3CC3)c(=O)[nH]c2=O)n1C | inactive: -3.54% |  |
| Cc1cccc(OCC(=O)Nc2ccc(NC(=O)c3ccco3)c(C)c2)c1 | inactive: 25.6% |  |
| CCCS(=O)(=O)Nc1cc(-c2cn3ccc(C)cc3n2)ccc1C | inactive: 13% |  |
| COc1ccccc1OCC(=O)OCC(=O)NC1CCCCC1 | inactive: -1.15% |  |
| c1ccc(-c2nc(N3CCOCC3)sc2-c2ccccc2)cc1 |  | active: 25.1 µM |
| COC(c1ccccc1)c1nnc(CCC(=O)NCc2cccc(-n3cccn3)c2)o1 (stereo unspecified) | inactive: 3.29% |  |
| Cc1cc(C)cc(C(=O)NC(=S)Nc2ccc(Cc3ccncc3)cc2)c1 | inactive: 10.1% |  |

| Compound | growth rescue (activation) | Potency |
| --- | --- | --- |
| COC(=O)C1=CN(Cc2ccc(OC)cc2)C=C(C(=O)OC)C1c1cc(OC)c(OC)c(OC)c1 | inactive: 3.1% |  |
| O=C(OCC(=O)c1ccccc1Cl)C1=NN(c2ccccc2)C(=O)CC1 | inactive: 7.7% |  |
| O=[N+]([O-])c1c(NCCCO)cc(N2CCN(Cc3ccc4c(c3)OCO4)CC2)c2nonc12 | inactive: 19.1% |  |
| Cc1ccc(CNC(=O)C2CCN(C(=O)Nc3ccc(C)cc3)CC2)cc1 | inactive: -7.5% |  |
| C/C(=N\NC(=O)c1ccccc1O)C1CC1 | inactive: 7.2% |  |
| O=C(OCC(=O)N1CCc2ccccc21)c1cc(S(=O)(=O)N2CCOCC2)ccc1F | inactive: 19.9% |  |
| CCCc1ccc(OCc2ccc(C(=O)N3CCCC3)o2)cc1 | inactive: -16.1% |  |
| S=c1[nH]nc(-c2cc(-c3ccsc3)n[nH]2)n1-c1cccc2ccccc12 | inactive: -7.63% |  |
| CCc1nnc(NC(=O)C2CCN(C(=O)NC3CCCCC3)CC2)s1 | inactive: 19.8% |  |
| O=[N+]([O-])c1ccc(O)c(/C=N/NC2=NS(=O)(=O)c3ccccc32)c1 | inactive: 9.4% |  |
| Cc1ccc(C)c(SCC(=O)Nc2ccc(S(=O)(=O)Nc3ncccn3)cc2)c1 | inactive: 22.5% |  |
| COc1ccccc1C(=O)CN1C(=O)NC2(CCCc3ccccc32)C1=O (stereo unspecified) | inactive: -6.18% |  |
| CCCC(C)c1nnc(NC(=O)C(=O)OCC)s1 (stereo unspecified) | inactive: -2.6% |  |
| Cc1ccc(NC(=O)Cc2c(O)c3ccccc3[nH]c2=O)c(C)c1 | inactive: 2.49% |  |
| COc1cc(/C=N/NC(=O)CN2CCCCC2)ccc1OCc1ccccc1 | inactive: 10.5% |  |
| CCN(CC)S(=O)(=O)c1ccc(Cl)c(NC(=O)c2cc(Cl)ccc2Cl)c1 | inactive: -2.15% |  |
| Cc1ccc(S(=O)(=O)N(C(=O)c2ccco2)c2cc3sc(=O)oc3c3ccccc23)cc1 | inactive: 26.1% |  |
| NC(=O)COC(=O)CCCc1c[nH]c2ccccc12 | inactive: -10.1% |  |
| Cc1ccc2nc(C)c3c(c2c1)OC(C(C)(Cl)Br)C3 (stereo unspecified) | inactive: -3.62% |  |
| O=C(COC(=O)c1ccc(O)cc1)Nc1ccccc1-c1ccccc1 | inactive: -1.17% |  |
| CCOC(=O)c1c(NC(=O)c2ccc(S(=O)(=O)N(CC)CC)cc2)sc2c1CCCCC2 | inactive: -0.891% |  |
| CCc1ccc(NC(=O)Cn2cnc3sc(C)c(S(=O)(=O)N4CCOCC4)c3c2=O)cc1 | inactive: 7.5% |  |

| Compound | growth rescue (activation) | Potency |
| --- | --- | --- |
| COc1ccc(-c2cc(C(=O)N3CCCC3)no2)cc1OC | inactive: 30.7% |  |
| O=C(COC(=O)c1ccc(Cl)c(S(=O)(=O)N2CCCC2)c1)NCc1cccs1 | inactive: -2.95% |  |
| O=[N+]([O-])CC(=Nc1ccc(Cl)cc1)N/N=C\c1oc(O)c2ccccc12 | inactive: 32% |  |
| CCC1C(=O)CC(c2ccccc2)NC1c1ccccc1 (stereo unspecified) | inactive: 8.19% |  |
| Cc1ccc(C)c(NC(=S)N2CCC(NC(=O)c3ccccc3)CC2)c1 | inactive: 12.3% |  |
| NNC(=O)COc1ccccc1[N+](=O)[O-] | inactive: 0.103% |  |
| C/C(=N\NC(=O)c1ccc(NS(=O)(=O)c2cccs2)cc1)c1ccccn1 | inactive: -62.7% |  |
| CC(C)NC(=S)N1CCN(C(c2ccccc2)c2ccccc2)CC1 | inactive: 5.39% |  |
| O=c1cc(CN2CCN(Cc3ccccc3)CC2)c2cc(Cl)ccc2o1 | inactive: 5.51% |  |
| Cc1ccccc1C(=O)NNC(=O)/C=C/c1ccccc1 | inactive: 6.18% |  |
| O=[N+]([O-])c1ccccc1S(=O)(=O)N1CCc2ccccc2C1 | inactive: -6.56% |  |
| CCCN1C2CCCC1CC(NC(=O)c1ccccc1OC)C2 (stereo unspecified) | inactive: -0.656% |  |
| CC(C)CC(c1nnnn1Cc1ccc2c(c1)OCO2)N1CCC(C(N)=O)CC1 (stereo unspecified) | inactive: 1.52% |  |
| COc1ccccc1-c1nnc(N)s1 | inactive: 7.64% |  |
| Cc1nnc(SCC(=O)Nc2cc(C(N)=O)cc(C(N)=O)c2)n1-c1ccccc1 | inactive: 10.8% |  |
| CCn1cnc2c(oc3ccccc32)c1=O | inactive: 19.8% |  |
| Cc1ccc(C(=O)C2=C(O)C(=O)N(Cc3cccnc3)C2c2ccc(Cl)cc2)o1 (stereo unspecified) | inactive: 11.2% |  |
| O=C(CNCCO)N1N=C(c2cccs2)CC1c1cccs1 (stereo unspecified) | inactive: 6.56% |  |
| CC(=C/C(=O)O)/C(=C\c1ccc(Br)o1)C(=O)O | inactive: -14.3% |  |
| O=C(O)c1ccc(-n2nc(-c3ccccc3)c3ccccc3c2=O)cc1 | inactive: 3.61% |  |
| CCCn1c(CN2CCN(C(C)=O)CC2)nc2cc(S(=O)(=O)N(C)C)ccc21 | inactive: -46.9% |  |
| COc1ccc(N=C/C=C2/C=C(c3ccccc3)OC(C)(C)O2)cc1 | inactive: -8.64% |  |

| Compound | growth rescue (activation) | Potency |
| --- | --- | --- |
| O=C(NCc1ccccc1Cl)c1csc([C@@H]2C[C@H](O)[C@@H](CO)O2)n1 | inactive: 0.159% |  |
| CCCCNC(=O)CN1C(=O)NC(Cc2ccccc2)(Cc2ccccc2)C1=O | inactive: -2% |  |
| Cn1nccc1C(=O)N1CCc2c([nH]c3ccccc23)C1c1ccc(F)cc1 (stereo unspecified) | inactive: 0.776% |  |
| Cc1ccc(S(=O)(=O)CCC(=O)Nc2nc3c(s2)CCCC3)cc1 | inactive: 16% |  |
| O=C(O)c1ccc(C(=O)c2ccc3c(c2)C(=O)N(CCO)C3=O)cc1 | inactive: -6.46% |  |
| Cc1onc(-c2ccccc2Cl)c1C(=O)OCC(=O)c1c(N)n(C)c(=O)n(C)c1=O | inactive: -2.65% |  |
| CC(NC(=O)c1ccc2c(c1)OCO2)c1ccccc1 (stereo unspecified) | inactive: -1.02% |  |
| C=CCn1c[n+](CC(=O)c2ccc(Br)s2)c2ccccc21 | inactive: -16.2% |  |
| Cn1c(N)c(C(=O)COC(=O)COc2cc(Cl)c(Cl)cc2Cl)c(=O)n(C)c1=O | inactive: 3% |  |
| COc1ccc(C2c3ccc4ccccc4c3Oc3ncn(CCCN(C)C)c(=N)c32)cc1 (stereo unspecified) | inactive: -14.7% |  |
| CN(C(=O)CCNC(=O)Cn1ccc2ccccc2c1=O)c1ccc(Br)cc1 | inactive: 9.63% |  |
| Nn1cnnc1SCC(=O)Nc1ccc2c(c1)OCO2 | inactive: -0.725% |  |
| CCCNC(=O)Cn1nc(C(F)(F)F)cc1C | inactive: -13.1% |  |
| COc1cc([N+](=O)[O-])cc(/C=N/NC(=O)C(C)Nc2cccc3ccccc23)c1O (stereo unspecified) | inactive: 28.2% |  |
| COc1ccc(OC)c(/C=N/NC(=O)CN2CCSCC2)c1 | inactive: -1.78% |  |
| CCCCN(C(=O)c1ccc(NC(=O)C(C)C)cc1)c1ccccc1 | inactive: 13.5% |  |
| O=C(NCC1(O)CCCCC1)C1CCC(=O)N(Cc2ccccc2F)C1 (stereo unspecified) | inactive: 20.1% |  |
| CCC(=O)Nc1ccc(NC(=S)NC(=O)c2oc3ccccc3c2C)cc1 | inactive: 2.89% |  |
